Results reported in the supplement of paper PMC11876631.
± gives the standard deviation of the averaged measurements. Laboratory Escherichia coli strains with one amino-acid change in an essential protein, pooled on minimal glucose agar with carbenicillin or gentamicin at twice the control MIC (plus kanamycin and chloramphenicol for the plasmids), 48 h. Fold change of barcode share against drug-free plates; higher = less susceptible. Active = above 20 in both replicates (the paper's putatively resistant). '<' = one read or none on drug, '>' = one read or none on a drug-free plate. Shares are relative, so most strains fall below 1 when a few take over. Listed are strains with at least 15 reads on both drug-free plates, and hits; most hits rest on fewer reference reads. Replicate rank correlation about 0.5. Edits are read from barcodes.

B1: murF V442W (protein)
chain: MISVTLSQLTDILNGELQGADITLDAVTTDTRKLTPGCLFVALKGERFDAHDFADQAKAGGAGALLVSRPLDIDLPQLIVKDTRLAFGELAAWVRQQVPARVVALTGSSGKTSVKEMTAAILSQCGNTLYTAGNLNNDIGVPMTLLRLTPEYDYAVIELGANHQGEIAWTVSLTRPEAALVNNLAAAHLEGFGSLAGVAKAKGEIFSGLPENGIAIMNADNNDWLNWQSVIGSRKVWRFSPNAANSDFTATNIHVTSHGTEFTLQTPTGSVDVLLPLPGRHNIANALAAAALSMSVGATLDAIKAGLANLKAVPGRLFPIQLAENQLLLDDSYNANVGSMTAAVQVLAEMPGYRVLVVGDMAELGAESEACHVQVGEAAKAAGIDRVLSVGKQSHAISTASGVGEHFADKTALITRLKLLIAEQQVITILVKGSRSAAMEEWVRALQENGTC
B2: murF V442D (protein)
chain: MISVTLSQLTDILNGELQGADITLDAVTTDTRKLTPGCLFVALKGERFDAHDFADQAKAGGAGALLVSRPLDIDLPQLIVKDTRLAFGELAAWVRQQVPARVVALTGSSGKTSVKEMTAAILSQCGNTLYTAGNLNNDIGVPMTLLRLTPEYDYAVIELGANHQGEIAWTVSLTRPEAALVNNLAAAHLEGFGSLAGVAKAKGEIFSGLPENGIAIMNADNNDWLNWQSVIGSRKVWRFSPNAANSDFTATNIHVTSHGTEFTLQTPTGSVDVLLPLPGRHNIANALAAAALSMSVGATLDAIKAGLANLKAVPGRLFPIQLAENQLLLDDSYNANVGSMTAAVQVLAEMPGYRVLVVGDMAELGAESEACHVQVGEAAKAAGIDRVLSVGKQSHAISTASGVGEHFADKTALITRLKLLIAEQQVITILVKGSRSAAMEEDVRALQENGTC
B3: murF V442Q (protein)
chain: MISVTLSQLTDILNGELQGADITLDAVTTDTRKLTPGCLFVALKGERFDAHDFADQAKAGGAGALLVSRPLDIDLPQLIVKDTRLAFGELAAWVRQQVPARVVALTGSSGKTSVKEMTAAILSQCGNTLYTAGNLNNDIGVPMTLLRLTPEYDYAVIELGANHQGEIAWTVSLTRPEAALVNNLAAAHLEGFGSLAGVAKAKGEIFSGLPENGIAIMNADNNDWLNWQSVIGSRKVWRFSPNAANSDFTATNIHVTSHGTEFTLQTPTGSVDVLLPLPGRHNIANALAAAALSMSVGATLDAIKAGLANLKAVPGRLFPIQLAENQLLLDDSYNANVGSMTAAVQVLAEMPGYRVLVVGDMAELGAESEACHVQVGEAAKAAGIDRVLSVGKQSHAISTASGVGEHFADKTALITRLKLLIAEQQVITILVKGSRSAAMEEQVRALQENGTC
B4: murF V442P (protein)
chain: MISVTLSQLTDILNGELQGADITLDAVTTDTRKLTPGCLFVALKGERFDAHDFADQAKAGGAGALLVSRPLDIDLPQLIVKDTRLAFGELAAWVRQQVPARVVALTGSSGKTSVKEMTAAILSQCGNTLYTAGNLNNDIGVPMTLLRLTPEYDYAVIELGANHQGEIAWTVSLTRPEAALVNNLAAAHLEGFGSLAGVAKAKGEIFSGLPENGIAIMNADNNDWLNWQSVIGSRKVWRFSPNAANSDFTATNIHVTSHGTEFTLQTPTGSVDVLLPLPGRHNIANALAAAALSMSVGATLDAIKAGLANLKAVPGRLFPIQLAENQLLLDDSYNANVGSMTAAVQVLAEMPGYRVLVVGDMAELGAESEACHVQVGEAAKAAGIDRVLSVGKQSHAISTASGVGEHFADKTALITRLKLLIAEQQVITILVKGSRSAAMEEPVRALQENGTC
B5: murG V121W (protein)
chain: MSGQGKRLMVMAGGTGGHVFPGLAVAHHLMAQGWQVRWLGTADRMEADLVPKHGIEIDFIRISGLRGKGIKALIAAPLRIFNAWRQARAIMKAYKPDVVLGMGGYVSGPGGLAAWSLGIPWVLHEQNGIAGLTNKWLAKIATKVMQAFPGAFPNAEVVGNPVRTDVLALPLPQQRLAGREGPVRVLVVGGSQGARILNQTMPQVAAKLGDSVTIWHQSGKGSQQSVEQAYAEAGQPQHKVTEFIDDMAAAYAWADVVVCRSGALTVSEIAAAGLPALFVPFQHKDRQQYWNALPLEKAGAAKIIEQPQLSVDAVANTLAGWSRETLLTMAERARAASIPDATERVANEVSRVARA
B6: murG L100A (protein)
chain: MSGQGKRLMVMAGGTGGHVFPGLAVAHHLMAQGWQVRWLGTADRMEADLVPKHGIEIDFIRISGLRGKGIKALIAAPLRIFNAWRQARAIMKAYKPDVVAGMGGYVSGPGGLAAWSLGIPVVLHEQNGIAGLTNKWLAKIATKVMQAFPGAFPNAEVVGNPVRTDVLALPLPQQRLAGREGPVRVLVVGGSQGARILNQTMPQVAAKLGDSVTIWHQSGKGSQQSVEQAYAEAGQPQHKVTEFIDDMAAAYAWADVVVCRSGALTVSEIAAAGLPALFVPFQHKDRQQYWNALPLEKAGAAKIIEQPQLSVDAVANTLAGWSRETLLTMAERARAASIPDATERVANEVSRVARA
B7: murG V122A (protein)
chain: MSGQGKRLMVMAGGTGGHVFPGLAVAHHLMAQGWQVRWLGTADRMEADLVPKHGIEIDFIRISGLRGKGIKALIAAPLRIFNAWRQARAIMKAYKPDVVLGMGGYVSGPGGLAAWSLGIPVALHEQNGIAGLTNKWLAKIATKVMQAFPGAFPNAEVVGNPVRTDVLALPLPQQRLAGREGPVRVLVVGGSQGARILNQTMPQVAAKLGDSVTIWHQSGKGSQQSVEQAYAEAGQPQHKVTEFIDDMAAAYAWADVVVCRSGALTVSEIAAAGLPALFVPFQHKDRQQYWNALPLEKAGAAKIIEQPQLSVDAVANTLAGWSRETLLTMAERARAASIPDATERVANEVSRVARA
B8: murG V122W (protein)
chain: MSGQGKRLMVMAGGTGGHVFPGLAVAHHLMAQGWQVRWLGTADRMEADLVPKHGIEIDFIRISGLRGKGIKALIAAPLRIFNAWRQARAIMKAYKPDVVLGMGGYVSGPGGLAAWSLGIPVWLHEQNGIAGLTNKWLAKIATKVMQAFPGAFPNAEVVGNPVRTDVLALPLPQQRLAGREGPVRVLVVGGSQGARILNQTMPQVAAKLGDSVTIWHQSGKGSQQSVEQAYAEAGQPQHKVTEFIDDMAAAYAWADVVVCRSGALTVSEIAAAGLPALFVPFQHKDRQQYWNALPLEKAGAAKIIEQPQLSVDAVANTLAGWSRETLLTMAERARAASIPDATERVANEVSRVARA
B9: murG L100P (protein)
chain: MSGQGKRLMVMAGGTGGHVFPGLAVAHHLMAQGWQVRWLGTADRMEADLVPKHGIEIDFIRISGLRGKGIKALIAAPLRIFNAWRQARAIMKAYKPDVVPGMGGYVSGPGGLAAWSLGIPVVLHEQNGIAGLTNKWLAKIATKVMQAFPGAFPNAEVVGNPVRTDVLALPLPQQRLAGREGPVRVLVVGGSQGARILNQTMPQVAAKLGDSVTIWHQSGKGSQQSVEQAYAEAGQPQHKVTEFIDDMAAAYAWADVVVCRSGALTVSEIAAAGLPALFVPFQHKDRQQYWNALPLEKAGAAKIIEQPQLSVDAVANTLAGWSRETLLTMAERARAASIPDATERVANEVSRVARA
B10: murG L100Q (protein)
chain: MSGQGKRLMVMAGGTGGHVFPGLAVAHHLMAQGWQVRWLGTADRMEADLVPKHGIEIDFIRISGLRGKGIKALIAAPLRIFNAWRQARAIMKAYKPDVVQGMGGYVSGPGGLAAWSLGIPVVLHEQNGIAGLTNKWLAKIATKVMQAFPGAFPNAEVVGNPVRTDVLALPLPQQRLAGREGPVRVLVVGGSQGARILNQTMPQVAAKLGDSVTIWHQSGKGSQQSVEQAYAEAGQPQHKVTEFIDDMAAAYAWADVVVCRSGALTVSEIAAAGLPALFVPFQHKDRQQYWNALPLEKAGAAKIIEQPQLSVDAVANTLAGWSRETLLTMAERARAASIPDATERVANEVSRVARA
B11: murG V122Q (protein)
chain: MSGQGKRLMVMAGGTGGHVFPGLAVAHHLMAQGWQVRWLGTADRMEADLVPKHGIEIDFIRISGLRGKGIKALIAAPLRIFNAWRQARAIMKAYKPDVVLGMGGYVSGPGGLAAWSLGIPVQLHEQNGIAGLTNKWLAKIATKVMQAFPGAFPNAEVVGNPVRTDVLALPLPQQRLAGREGPVRVLVVGGSQGARILNQTMPQVAAKLGDSVTIWHQSGKGSQQSVEQAYAEAGQPQHKVTEFIDDMAAAYAWADVVVCRSGALTVSEIAAAGLPALFVPFQHKDRQQYWNALPLEKAGAAKIIEQPQLSVDAVANTLAGWSRETLLTMAERARAASIPDATERVANEVSRVARA
B12: asnS V74A (protein)
chain: MSVVPVADVLQGRVAVDSEVTVRGWVRTRRDSKAGISFLAVYDGSCFDPVQAVINNSLPNYNEDVLRLTTGCSAIVTGKVVASPGQGQQFEIQASKVEVAGWVEDPDTYPMAAKRHSIEYLREVAHLRPRTNLIGAVARVRHTLAQALHRFFNEQGFFWVSTPLITASDTEGAGEMFRVSTLDLENLPRNDQGKVDFDKDFFGKESFLTVSGQLNGETYACALSKIYTFGPTFRAENSNTSRHLAEFWMLEPEVAFANLNDIAGLAEAMLKYVFKAVLEERADDMKFFAERVDKDAVSRLERFIEADFAQVDYTDAVTILENCGRKFENPVYWGVDLSSEHERYLAEEHFKAPVVVKNYPKDIKAFYMRLNEDGKTVAAMDVLAPGIGEIIGGSQREERLDVLDERMLEMGLNKEDYWWYRDLRRYGTVPHSGFGLGFERLIAYVTGVQNVRDVIPFPRTPRNASF

Target: Escherichia coli (laboratory strain)
Experiment: barcode share on antibiotic plates over drug-free plates; higher = less susceptible
Description: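 A pool of E. coli strains, each edited to carry one amino-acid change in an essential protein, was grown for 48 h on minimal glucose agar with or without antibiotic; strain barcodes were sequenced; mean of two replicates.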

[1] = antibiotic: carbenicillin, 2× MIC (3.1 µg/mL)
[2] = antibiotic: gentamicin, 2× MIC (MIC 0.45 µg/mL)

| Protein | fold change of barcode share [1] | fold change of barcode share [2] |
| --- | --- | --- |
| B1 | 0.345 ± 0.27 | 0.0317 ± 0.034 |
| B2 | 0.281 ± 0.13 | < 0.0116 |
| B3 | 0.275 ± 0.082 | < 0.00447 |
| B4 | 0.23 ± 0.017 | < 0.00869 |
| B5 | 0.333 ± 0.073 | 0.00814 ± 0.0085 |
| B6 | 0.3 ± 0.02 | 0.0092 ± 0.0019 |
| B7 | 0.262 ± 0.037 |  |
| B8 | 0.137 ± 0.046 |  |
| B9 | 0.261 ± 0.23 |  |
| B10 | 0.254 ± 0.084 | 0.00317 ± 0.0015 |
| B11 | 0.258 ± 0.11 |  |
| B12 | 0.291 ± 0.15 | 0.0145 ± 0.013 |
